Source: publication PMC4336329 (PLoS ONE, 2015)
In all, about 310,000 compounds went through this assay and about 14,000 (4.5%) showed an effect of 50% or more. The effect is printed as a negative number. The list shows a part of the results.

The compounds below were run against human ether-à-go-go-related gene (hERG) potassium channel (human, UniProt Q12809) (assay: primary screen, population patch clamp on CHO cells stably expressing hERG).
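Note: peak tail current of the secondary pulse compared with the same well before compound.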

human ether-à-go-go-related gene (hERG) potassium channel, sequence (Q12809 whole entry, looked up): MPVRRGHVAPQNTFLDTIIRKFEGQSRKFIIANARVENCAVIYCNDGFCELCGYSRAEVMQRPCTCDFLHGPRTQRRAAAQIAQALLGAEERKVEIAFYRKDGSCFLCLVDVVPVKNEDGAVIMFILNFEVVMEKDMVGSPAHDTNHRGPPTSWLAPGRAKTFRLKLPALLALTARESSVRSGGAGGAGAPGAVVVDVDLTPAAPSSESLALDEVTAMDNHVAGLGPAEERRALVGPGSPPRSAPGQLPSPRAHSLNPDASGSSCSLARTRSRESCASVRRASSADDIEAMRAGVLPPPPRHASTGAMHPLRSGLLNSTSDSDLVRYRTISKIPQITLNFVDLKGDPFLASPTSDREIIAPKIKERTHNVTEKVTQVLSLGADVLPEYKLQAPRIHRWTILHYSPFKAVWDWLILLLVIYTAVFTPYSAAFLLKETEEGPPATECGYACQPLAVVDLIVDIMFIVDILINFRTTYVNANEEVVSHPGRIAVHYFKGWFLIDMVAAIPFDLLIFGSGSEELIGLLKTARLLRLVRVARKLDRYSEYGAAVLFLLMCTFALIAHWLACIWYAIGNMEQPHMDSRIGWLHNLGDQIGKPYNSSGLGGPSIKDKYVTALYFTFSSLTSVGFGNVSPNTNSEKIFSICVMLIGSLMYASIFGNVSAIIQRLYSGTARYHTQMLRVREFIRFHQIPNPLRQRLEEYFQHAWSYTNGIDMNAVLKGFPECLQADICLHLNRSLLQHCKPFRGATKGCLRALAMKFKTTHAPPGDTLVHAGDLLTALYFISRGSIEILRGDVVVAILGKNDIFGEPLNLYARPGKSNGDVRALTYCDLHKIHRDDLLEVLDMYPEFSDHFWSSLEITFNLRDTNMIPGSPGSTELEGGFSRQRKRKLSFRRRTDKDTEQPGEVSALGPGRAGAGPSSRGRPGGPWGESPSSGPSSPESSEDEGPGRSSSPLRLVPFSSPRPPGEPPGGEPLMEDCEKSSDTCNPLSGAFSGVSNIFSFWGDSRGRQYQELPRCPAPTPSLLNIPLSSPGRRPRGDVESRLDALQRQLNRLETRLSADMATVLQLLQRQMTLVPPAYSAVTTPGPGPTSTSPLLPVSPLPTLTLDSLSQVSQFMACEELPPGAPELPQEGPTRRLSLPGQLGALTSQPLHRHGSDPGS

Going from `COc1ccc(/C=C2\COc3ccccc3C2=O)cc1OC` to `COc1ccc(OC)c(S(=O)(=O)N2CCCc3ccccc32)c1`, the “hERG current change (%, negative = inhibition) at 10uM” value falls from -17.1% to -22.9%.

First: CCCC(=O)Nc1nc2ccc(C(=O)OCC)cc2s1
Second: CCOC(=O)c1ccccc1NC(=O)CSc1nc2[nH]ncc2c(=O)[nH]1
The “hERG current change (%, negative = inhibition) at 10uM” value of the first is higher: 11.4% for the first, -2.32% for the second.

First: COc1cc(NS(=O)(=O)c2ccc(NS(=O)(=O)c3ccc(NC(C)=O)cc3)cc2)nc(OC)n1
Second: Cc1ccc(NS(=O)(=O)c2ccc(-n3cccn3)cc2)cc1F
The “hERG current change (%, negative = inhibition) at 10uM” value of the first is higher: 22.7% for the first, 15.6% for the second.

Going from `CC1Cc2ccccc2N1C(=O)COC(=O)c1c2c(nc3ccccc13)CCCCC2` (stereo not drawn) to `CCCCn1c(=O)c(C(=O)c2ccccc2)nc2ccccc21`, the “hERG current change (%, negative = inhibition) at 10uM” value falls from 6.67% to -30.4%.

Compared with `Cc1ccn2c(C(=O)N/N=C\c3cccs3)c(C)nc2c1`, `CCOc1cc(/C=N/NC(=O)CCn2nc(C)cc2C)ccc1O` is higher in “hERG current change (%, negative = inhibition) at 10uM” value: -7.56% for the first, 24.4% for the second.

First: CC(Nc1cccc2ccccc12)C(=O)N/N=C/c1ccccn1 (stereo not drawn)
Second: N/C(=N\OC(=O)C(c1ccccc1)c1ccccc1)c1ccccn1
The “hERG current change (%, negative = inhibition) at 10uM” value of the first is higher: 10.4% for the first, 8.35% for the second.

Going from `S=C1NCCOCCOCCOCCNC(=S)N2CCOCCOCCN1CCOCCOCC2` to `O=C(c1ccc(N2C(=O)CCC2=O)cc1)N1CCOCC1`, the “hERG current change (%, negative = inhibition) at 10uM” value falls from 13.6% to 7.4%.

Going from `FC(F)(F)c1cc(Sc2ccccc2)nc(-c2ccccn2)n1` to `Brc1cccc(-c2nc3cccnc3nc2-c2cccc(Br)c2)c1`, the “hERG current change (%, negative = inhibition) at 10uM” value rises from -19.3% to 2.17%.

First: Cc1cccc(NC(=S)N2CCC(N(C)CC3CCCO3)CC2)c1 (stereo not drawn)
Second: Cc1cccc(Nc2nnc(SCC3CCCCO3)s2)c1 (stereo not drawn)
The “hERG current change (%, negative = inhibition) at 10uM” value of the first is lower: -32.3% for the first, -22.5% for the second.

Compared with `CCCCC(c1nnnn1C1CCCC1)N1CCN(C(=O)c2ccco2)CC1.Cl` (stereo not drawn), `CCCc1cc(N2CCN(C(=O)c3ccco3)CC2)n2c(nc3ccccc32)c1C#N` is lower in “hERG current change (%, negative = inhibition) at 10uM” value: -47% for the first, -56.1% for the second.

Compared with `CN(C)c1nc(N)c([N+](=O)[O-])c(NCCO)n1`, `COCCNC(=O)c1c(N)n(CCC(C)C)c2nc3ccccc3nc12` is lower in “hERG current change (%, negative = inhibition) at 10uM” value: 0.948% for the first, -15.1% for the second.

First: COc1ccccc1NC(=O)C1CC(=O)N(c2ccc(F)cc2)C1 (stereo not drawn)
Second: COc1ccc(N2C(=O)[C@@H]3Cc4ccccc4CN3C2=O)cc1
The “hERG current change (%, negative = inhibition) at 10uM” value of the first is higher: 19.5% for the first, -4.81% for the second.

Compared with `COc1ccccc1C(=O)NC(=S)Nc1cccnc1Cl`, `COc1ccc(CCNC(=S)NC(=O)c2cccc([N+](=O)[O-])c2)cc1OC` is higher in “hERG current change (%, negative = inhibition) at 10uM” value: -12.7% for the first, -6.36% for the second.

First: COc1ccccc1NC(=O)COc1ccc(-c2nn(C)c(=O)c3ccccc23)cc1
Second: COc1ccc(-c2cc(=O)oc3cc(OCC(=O)N[C@@H](Cc4c[nH]c5ccccc45)C(=O)O)ccc23)cc1
The “hERG current change (%, negative = inhibition) at 10uM” value of the first is lower: -26.3% for the first, -4.79% for the second.

First: CCOCCn1c(SCc2c(F)cccc2Cl)nc2c1c(=O)[nH]c(=O)n2C
Second: CCCCCCn1c(COc2ccccc2F)nnc1SCC(=O)c1c(N)n(C)c(=O)n(C)c1=O
The “hERG current change (%, negative = inhibition) at 10uM” value of the first is lower: -3.53% for the first, 9.75% for the second.

Compared with `CC(=O)Nc1ccc(NC(=O)C(C)Sc2n[nH]c(-c3cccs3)n2)cc1` (stereo not drawn), `CC(=O)N1CCN(c2ccc(NC(=O)c3ccc(C)cc3)cc2)CC1` is higher in “hERG current change (%, negative = inhibition) at 10uM” value: -12.3% for the first, 5.89% for the second.

Compared with `CNC(=O)O/N=C/c1nn(C(=O)C(C)(C)C)cc1Br`, `C/C=C(\C)c1nnc(NC(=O)OCC)s1` is higher in “hERG current change (%, negative = inhibition) at 10uM” value: -4.16% for the first, 8.46% for the second.

First: CC(C)CN(C1CCS(=O)(=O)C1)S(=O)(=O)c1ccc2ccccc2c1 (stereo not drawn)
Second: Cc1ccc(S(=O)(=O)/N=C/c2c(O)ccc3ccccc23)cc1
The “hERG current change (%, negative = inhibition) at 10uM” value of the first is lower: -18.2% for the first, 7.66% for the second.

First: N=C1/C(=C\c2coc3ccccc3c2=O)C(=O)N=C2SC(c3ccncc3)=NN12
Second: Cn1c(-c2ccncc2)nc2ccccc21
The “hERG current change (%, negative = inhibition) at 10uM” value of the first is lower: -59% for the first, 3.78% for the second.

Compared with `COc1ccccc1C1C(C(N)=O)=C(C)Nc2nc(-c3ccccc3Cl)nn21` (stereo not drawn), `OCCCc1nc2n(n1)C(c1ccccc1)C=C(c1ccccc1)N2` (stereo not drawn) is lower in “hERG current change (%, negative = inhibition) at 10uM” value: 5.89% for the first, -17.3% for the second.

First: COc1cc(/C=N/N(C)C)ccc1OC(=O)c1cccs1
Second: CCOP(=O)(c1ccc(N(C)C)cc1)C(O)c1ccccc1OC (stereo not drawn)
The “hERG current change (%, negative = inhibition) at 10uM” value of the first is higher: 2.86% for the first, 2.07% for the second.

Compared with `O=C(CNC(=O)c1ccc2c(c1)OCO2)Nc1cccc(Br)c1`, `Cc1ccc(C(=O)NCCc2nnc3ccc(SCC(=O)Nc4ccccc4F)nn23)cc1` is lower in “hERG current change (%, negative = inhibition) at 10uM” value: 9.59% for the first, -12.7% for the second.

Compared with `O=C(CN1c2ccccc2Sc2ccccc21)NNC(=O)Nc1ccc(Cl)cc1`, `O=C(Nc1ccccc1N1CCN(C(=O)c2ccc(Cl)cc2)CC1)c1cccc([N+](=O)[O-])c1` is lower in “hERG current change (%, negative = inhibition) at 10uM” value: 9.73% for the first, -75% for the second.

Compared with `CCOc1ccc(-c2nc3c(s2)CCc2onc(-c4ccc(OC)cc4)c2-3)cc1`, `COc1ccc(OCC(=O)Nc2ccc3c(c2)nc(CCN2CCN(C)CC2)n3C)cc1` is lower in “hERG current change (%, negative = inhibition) at 10uM” value: 8.95% for the first, -8.47% for the second.

First: CCc1cc(-c2n[nH]c(C)c2-c2nc3ccccc3s2)c(O)cc1OCC(=O)NN
Second: CN1Cc2cc(C(=O)c3ccccc3O)cnc2NC1=O
The “hERG current change (%, negative = inhibition) at 10uM” value of the first is lower: -7.81% for the first, -3.74% for the second.

Going from `CCOCc1c(C(=O)Nc2ccc(OC)nc2)oc2ccccc12` to `O=C(Nc1cc(-c2nc3ncccc3o2)ccc1Cl)c1cccs1`, the “hERG current change (%, negative = inhibition) at 10uM” value falls from -17.9% to -45.9%.

Going from `O=C(Nc1ccccc1N1CCOCC1)c1cc(Br)c(Br)s1` to `CNc1nc(OCCNC(=O)Nc2ccccc2)nc(N2CCOCC2)n1`, the “hERG current change (%, negative = inhibition) at 10uM” value rises from -2.44% to 23.8%.

First: Cc1ccnc(NC(=O)Cn2c(=O)oc3cc(S(=O)(=O)N4CCCC4)ccc32)c1
Second: CCN(Cc1ccncc1)C(=O)c1cccc(S(=O)(=O)N2CCOCC2)c1
The “hERG current change (%, negative = inhibition) at 10uM” value of the first is higher: -1.79% for the first, -9.65% for the second.

Compared with `CC(C)=NNc1cc([N+](=O)[O-])cc2c1C(=O)N(C)S2=O` (stereo not drawn), `CCOP(=O)(OCC)/C(=N/OC(=O)c1cccc([N+](=O)[O-])c1)C(N)=O` is lower in “hERG current change (%, negative = inhibition) at 10uM” value: 14.8% for the first, 12.9% for the second.

Compared with `Cc1nc(-c2c(C(=O)NNC(=O)Nc3c(C)cccc3C)noc2C)cs1`, `Cc1cc(C(F)F)n2nc(C(=O)Nc3cccc(C(F)(F)F)c3)nc2n1` is lower in “hERG current change (%, negative = inhibition) at 10uM” value: 9.65% for the first, -32.7% for the second.

Compared with `COc1ccc(NC(=O)NCCCN2CCCC2=O)c(OC)c1`, `CCN(Cc1ccncc1)Cc1ccc(OC)cc1OC.O=C(O)C(=O)O` is lower in “hERG current change (%, negative = inhibition) at 10uM” value: -4.04% for the first, -51.4% for the second.

Compared with `O=C(Nc1ccc(CN2CCS(=O)(=O)CC2)cc1)c1ccc(Cl)cc1`, `O=C(NCc1ccccn1)c1ccc(OC2CCN(Cc3ccc(F)cc3F)CC2)cc1` is lower in “hERG current change (%, negative = inhibition) at 10uM” value: -18.8% for the first, -25.9% for the second.

Going from `Cc1ccc(C)c(CN2CCCN(C(=O)Cn3ncc4c3-c3ccccc3OC4)C2)c1` to `CCCC1=Nc2cc(C(=O)N3CCN(c4ccccn4)CC3)ccc2Sc2ccc(C)cc21`, the “hERG current change (%, negative = inhibition) at 10uM” value rises from -2.82% to 13%.

Going from `COc1cc(NC(=O)c2ccc(S(=O)(=O)N(C)C)cc2)cc(OC)c1OC` to `CC(=O)N1CCc2cc(S(=O)(=O)CCC(=O)N(C)c3cc(C)ccc3C)ccc21`, the “hERG current change (%, negative = inhibition) at 10uM” value rises from -4.23% to 1.49%.

Compared with `Cc1cc(=O)n(CCCc2ccccc2)[nH]1`, `Cc1nn(Cc2ccccc2)c(Cl)c1/C=C/C(=O)OC(C(=O)NC(N)=O)C(C)C` (stereo not drawn) is higher in “hERG current change (%, negative = inhibition) at 10uM” value: 12.8% for the first, 16% for the second.

First: Cc1nc(NC(=O)C2CC2)sc1C
Second: Cc1ccc(F)cc1CNC(=O)C1CCC(=O)N(C2CC2)C1 (stereo not drawn)
The “hERG current change (%, negative = inhibition) at 10uM” value of the first is lower: -8.88% for the first, 2.81% for the second.

First: Cn1nnc(NC(=O)c2ccc(Br)o2)n1
Second: COc1ccccc1CC(=O)Nc1c[nH]c(=O)[nH]c1=O
The “hERG current change (%, negative = inhibition) at 10uM” value of the first is lower: 20.4% for the first, 38.8% for the second.

Compared with `O=C(N[C@@H]1CCC(=O)N(CC[C@H](Sc2ccccc2)c2ccccc2)CC1)OCc1ccccc1`, `O=C(O)COc1ccccc1/C=N/NC(=O)CSc1nc2ccccc2n1Cc1ccccc1Cl` is higher in “hERG current change (%, negative = inhibition) at 10uM” value: -24% for the first, 1.42% for the second.

Going from `CCOc1ccc(-n2nnc3c(=O)n(CC(=O)N4CCCc5ccccc54)cnc32)cc1` to `CC1Cc2cc(/C(O)=C3\C(=O)C(=O)N(Cc4ccncc4)C3c3ccccc3F)ccc2O1` (stereo not drawn), the “hERG current change (%, negative = inhibition) at 10uM” value rises from -4.52% to 4.63%.

Compared with `O=C(CCN1C(=O)/C(=C/c2ccccc2Cl)SC1=S)NNC(=O)c1cccnc1`, `O=C1NC(=O)C(=Cc2csc3ccccc23)C(=O)N1` is lower in “hERG current change (%, negative = inhibition) at 10uM” value: 18.4% for the first, 7.68% for the second.

First: CCOC(=O)C1(Cc2cccc(OC)c2)CCN(C(C)CC(C)(C)O)CC1 (stereo not drawn)
Second: COc1ccc(NC(=O)CN2CCC(C(N)=O)CC2)cc1
The “hERG current change (%, negative = inhibition) at 10uM” value of the first is lower: -28.5% for the first, 2.76% for the second.

Compared with `O=C(O)C1C2C=CC(O2)C1C(=O)NCc1ccc(Cl)cc1` (stereo not drawn), `CCOc1ccc(N(C(=O)c2snc(C(N)=O)c2N)C(CC)C(=O)NC2CCCC2)cc1` (stereo not drawn) is higher in “hERG current change (%, negative = inhibition) at 10uM” value: 8.85% for the first, 20.3% for the second.

Going from `Cc1cc(F)ccc1S(=O)(=O)Nc1ncnc2scc(-c3ccc(F)cc3)c12` to `Clc1ccc2c(N3CCNCC3)ccnc2c1`, the “hERG current change (%, negative = inhibition) at 10uM” value falls from 7.17% to -41.9%.

For `O=C(CSc1nc2[nH]ncc2c(=O)[nH]1)N1CCCC1`, the “hERG current change (%, negative = inhibition) at 10uM” value was 16.8%.
